# Assay results: paper PMC4336329 (PLoS ONE, 2015)
# Screen size: about 310,000 compounds; about 14,000 (4.5%) showed an effect of 50% or more. The effect is printed as a negative number. Some of the results follow.
# Biological target: human ether-à-go-go-related gene (hERG) potassium channel (human, UniProt Q12809)
# Test: primary screen, population patch clamp on CHO cells stably expressing hERG
# 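Note: peak tail current of the secondary pulse compared with the same well before compound.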
# human ether-à-go-go-related gene (hERG) potassium channel, sequence (Q12809 whole entry, looked up): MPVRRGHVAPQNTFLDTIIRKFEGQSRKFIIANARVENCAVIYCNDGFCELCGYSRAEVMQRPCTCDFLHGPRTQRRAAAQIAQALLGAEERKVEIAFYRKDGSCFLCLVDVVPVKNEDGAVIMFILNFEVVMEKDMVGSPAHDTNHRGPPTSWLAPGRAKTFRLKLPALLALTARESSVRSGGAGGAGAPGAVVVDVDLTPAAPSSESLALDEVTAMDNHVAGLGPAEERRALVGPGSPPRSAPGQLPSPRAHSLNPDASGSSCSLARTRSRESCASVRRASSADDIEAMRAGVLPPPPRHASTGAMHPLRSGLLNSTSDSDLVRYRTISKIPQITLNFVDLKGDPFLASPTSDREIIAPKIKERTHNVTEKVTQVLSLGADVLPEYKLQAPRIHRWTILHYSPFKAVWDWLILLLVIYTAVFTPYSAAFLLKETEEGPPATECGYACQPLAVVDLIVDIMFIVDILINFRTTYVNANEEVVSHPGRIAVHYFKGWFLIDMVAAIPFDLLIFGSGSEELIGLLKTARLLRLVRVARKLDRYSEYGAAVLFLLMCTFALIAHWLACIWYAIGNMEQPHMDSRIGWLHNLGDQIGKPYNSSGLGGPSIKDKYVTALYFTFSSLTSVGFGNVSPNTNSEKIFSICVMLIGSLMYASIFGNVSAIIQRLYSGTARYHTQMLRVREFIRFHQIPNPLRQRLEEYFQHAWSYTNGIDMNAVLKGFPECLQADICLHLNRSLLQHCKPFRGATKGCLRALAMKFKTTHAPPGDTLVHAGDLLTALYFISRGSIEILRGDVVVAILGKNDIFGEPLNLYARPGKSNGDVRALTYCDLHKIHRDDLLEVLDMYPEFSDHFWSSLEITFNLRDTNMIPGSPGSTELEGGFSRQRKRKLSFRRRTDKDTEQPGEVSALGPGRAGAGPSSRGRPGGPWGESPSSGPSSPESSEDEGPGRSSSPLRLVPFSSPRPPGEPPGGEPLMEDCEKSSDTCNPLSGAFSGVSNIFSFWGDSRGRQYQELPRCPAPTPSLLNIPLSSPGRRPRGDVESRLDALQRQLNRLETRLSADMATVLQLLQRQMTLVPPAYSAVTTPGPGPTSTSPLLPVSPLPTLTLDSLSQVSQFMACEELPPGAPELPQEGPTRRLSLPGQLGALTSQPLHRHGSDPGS
row,Structure (SMILES),"hERG current change (%, negative = inhibition) at 10uM [%]"
1,O.S=c1nc[nH]c2nc[nH]c12,-38.7
2,COc1cccc(CN2CCN(Cc3ccon3)CC2CCO)c1 (centres unmarked),0.227
3,S=C1NCN(Cc2ccco2)CN1CCc1ccccc1,12.1
4,Cc1ccc(C(=O)c2ncc[nH]2)cc1,4.75
5,O=c1[nH]n2c(C(F)(F)F)cc(C3CC3)nc2c1N=Nc1ccccc1,12.2
6,CCC(=O)N1CCN(c2ccnc3cc(Cl)ccc23)CC1,-63.6
7,CCc1cccc(OCC(=O)Nc2cc(Cl)ccc2-n2cncn2)c1,-25.6
8,COc1ccccc1NC(=O)C1(C)Cc2ccccc2C(=O)O1 (centres unmarked),-10.2
9,N#Cc1ccc(NC(=S)NCCN2CCOCC2)cc1,-0.742
10,FC(F)(F)C(Oc1nc(NC2CCCCC2)nc(N2CCOCC2)n1)C(F)(F)F,14.7
11,Cn1c(=O)c2c(-c3ccccc3)n(-n3cnnc3)cc2n(C)c1=O,-6.8
12,Cn1c(=O)c2c(nc(NCc3cccnc3)n2Cc2cccc(C(F)(F)F)c2)n(C)c1=O,-28.8
13,CCOc1ccc2[nH]cc(C(=O)NCCCN3CCOCC3)c(=O)c2c1,16.3
14,O=C(CCc1nc2ccccc2c(=O)[nH]1)Nc1nc(-c2cccs2)cs1,-10.3
15,C/C(N)=C(/C#N)C(=O)COC(=O)C1CCN(C(=O)c2ccc(Cl)cc2)CC1,-14.3
16,FC(F)(F)c1nc2ccccc2n2c(-c3ccc(Cl)cc3Cl)nnc12,-18.6
17,CCCCNC(=O)C(=O)N/N=C/c1cccc(Br)c1,-3.36
18,Cc1ccc(C(=O)NC(C)c2ccc(-n3ccnc3)cc2)c(C)c1 (centres unmarked),-57.4
19,O=[N+]([O-])c1ccc(N2CCN(CCOc3nonc3-c3ccccc3)CC2)c(Cl)c1,-4.17
20,CCOC(=O)c1c(-c2ccccc2)oc2ccc(OCC)cc12,2.75
21,O=C(COc1ccccc1Cl)Nc1ccc(C(=O)N2CCCCC2)cc1,-22.9
22,N#CCCn1ncc2ccccc21,14.8
23,CC(C)(C)Nc1nc2nonc2nc1NC(C)(C)C,7.77

row,Structure (SMILES),"hERG current change (%, negative = inhibition) at 10uM [%]"
1,COc1ccc(C(=O)NCc2nnc(SCC(=O)Nc3cc(C)on3)o2)cc1OC,3.22
2,O=C(CCCCCN1C(=O)c2ccccc2C1=O)Nc1ccccc1,-10.6
3,CSc1ccc(/C=C/C(=O)OCC(=O)c2ccc[nH]2)cc1,7.65
4,COc1ccccc1C(=O)NCCC(=O)Nc1cccc(C)n1,12.3
5,O=C(CC1C(=O)NCCN1CC(c1ccccc1)c1ccccc1)NC1CC1 (centres unmarked),35.1
6,COc1cc(OC)c(-c2nc3c[n+](CC(=O)c4ccccc4)ccc3n2C)cc1OC.[Br-],1.76
7,CN(Cc1cccnc1)C(=O)CC1C(=O)NCCN1Cc1ccc(-c2ccccc2)cc1 (centres unmarked),-0.176
8,Oc1c(C(c2ccccn2)N2CCOCC2)ccc2cccnc12 (centres unmarked),19.8
9,COc1cccc(NC(=O)N2C3CCCC2CC(NC(=O)C2CC2)C3)c1 (centres unmarked),6.96
10,Oc1ccccc1-c1nc(NCCN2CCOCC2)c2ccccc2n1,-26.2
11,CCN(CC)c1nc(-c2nn[nH]n2)nc(N(CC)CC)n1,10
12,Cc1cc(=O)n2c3c(cccc13)CCC2,5.72
13,COCCCNC(=O)c1cc(=O)n(Cc2ccc(Cl)cc2)c2ccccc12,8.7
14,O=C(O)C1CC(=O)N(Cc2ccc3c(c2)OCO3)C1 (centres unmarked),0.204
15,O=C(NCCC1CCCCN1S(=O)(=O)c1ccccc1)C(=O)NCc1ccccc1 (centres unmarked),-20.5
16,COc1cc2c(C(=O)N3CCCc4ccccc43)cn(C)c(=O)c2cc1OC,5.98
17,CC1Cn2c(nc(=O)c3c2NCN(CCc2ccccc2)C3)S1 (centres unmarked),13.5
18,CC(C)Oc1ccc(S(=O)(=O)N2CCCCC2)cc1NC(=O)C1CSC2(C)CCC(=O)N12 (centres unmarked),-20.9
19,O=C1CCC/C(=N/Nc2ccc(Cl)cc2)C1,9.93
20,CC(C)Sc1nc2ccccc2c(=O)[nH]1,4.07
21,CN(C)c1cc(Nc2ccc(O)cc2)c([N+](=O)[O-])c2nonc12,4.25
22,CCOCCCNC(=O)Cc1ccc(-n2c(CC)nc3cccnc32)cc1,-8.18
23,CCN(c1ccc(F)cc1)S(=O)(=O)c1ccc2[nH]cc(C(=O)NCCCN3CCOCC3)c(=O)c2c1,-7.11

row,Structure (SMILES),"hERG current change (%, negative = inhibition) at 10uM [%]"
1,COc1cccc(C(=O)N2CCCN(C)CC2)c1OC,4.44
2,Cc1ccc(OCCC(=O)OCC(=O)NC2CCCC2)cc1,4.57
3,O=C(CSCCc1ccccn1)Nc1cccnc1,18.4
4,COc1ccccc1CNC(=O)/C(C#N)=C/c1ccc(OC)c(OC)c1OC,-7.1
5,Cc1ccccc1OCc1n(CC(=O)OC2CC(C)CCC2C(C)C)c2ccccc2[n+]1C.[Cl-] (centres unmarked),-72
6,Cc1ccc(CN2CCN(Cc3ccccc3)CC2)cc1,-36
7,CSc1ccc(S(=O)(=O)NCC(=O)OCCOc2ccccc2)cc1[N+](=O)[O-],-1.58
8,C/C=C1/C[N+]2(C)CCC34C(=C(C=O)[C@H]1C[C@@H]32)Nc1ccccc14.[Cl-] (some centres unmarked),10.6
9,Clc1ccc(CCNc2nc3ccccc3n3nnnc23)cc1,2.56
10,Cl.O=C(O)c1ccc(Nc2c3ccccc3nc3ccccc23)cc1,-2.61
11,COc1ccc(CCNC(=O)c2c(O)c3c([nH]c2=O)CCCC3)cc1,3.52
12,C=C(C)c1cccc(C(C)(C)NC(=O)N2CCN(c3ccccn3)CC2)c1,-27.1
13,CCN(CC)c1ccc(/C=N/N2CC(=O)NC2=S)cc1,6.54
14,O=C(O)c1cccc2c1NC(C(=O)O)C1CC(Sc3ccccc3[N+](=O)[O-])C(Cl)C21 (centres unmarked),-0.458
15,CCN1CCN(C(=O)c2cc3c(=O)n4ccccc4nc3s2)CC1,11.2
16,Cc1cccc(/C=N/n2c(COc3ccccc3)n[nH]c2=S)c1,14.8
17,O=C(CN1C(=O)S/C(=C\c2ccc(F)cc2)C1=O)Nc1cccc(S(=O)(=O)NCc2ccco2)c1,-1.45
18,CCOc1ccccc1NC(=O)CCN(c1ccc(C)cc1)S(=O)(=O)c1ccccc1,-10.9
19,Cc1cc2c(=O)n(Cc3ccco3)c(SCC(=O)c3ccc(Cl)s3)nc2s1,-18.6
20,CCC(=O)Nc1ccc(S(=O)(=O)N2CCc3ccccc3C2)cc1,-1.77
21,CCOc1ccc(N(CC(=O)NCc2ccco2)S(=O)(=O)c2ccc(OC)c(OC)c2)cc1,5.94
22,COC(=O)C1CC(=O)N(c2ccc(C)cc2)C1 (centres unmarked),1.44
23,O=P(O)(CCc1ccccc1)C(O)c1ccccc1 (centres unmarked),6.06

row,Structure (SMILES),"hERG current change (%, negative = inhibition) at 10uM [%]"
1,CCCOc1ccc(/C=c2\sc3nc(-c4ccco4)nn3c2=O)cc1OCC,8.39
2,CCOc1ccc(N=C2NN=C(c3cc(C)n(CC4CCCO4)c3C)CS2)cc1 (centres unmarked),5.85
3,CN(Cc1ccc(-n2cccn2)cc1)Cc1cn(C)nc1-c1ccccc1F,-74.9
4,COc1ccc(/C=C/c2c([N+](=O)[O-])c(=O)n(C)c(=O)n2C)cc1OC,0.272
5,CCOC(=O)C1CCN(C(=O)Cn2nc(C)n3c(cc4cc(C)ccc43)c2=O)CC1,-35
6,Cc1ccc(S(=O)(=O)N(C)/N=C/c2ccc(N(C)C)cc2)cc1,9.16
7,CCOc1ccc(CCNC(=O)c2ccc(OCc3c(C)noc3C)cc2)cc1OCC,11.8
8,O=C1N(CCCl)c2ccc(Br)cc2C12OCCO2,9.62
9,Cc1ccc(N2C(=O)CC(N3CCN(C4CCc5ccccc5C4)CC3)C2=O)cc1 (centres unmarked),-75.1
10,CN(C)S(=O)(=O)c1ccc2c(c1)Cc1cc(S(=O)(=O)N(C)C)ccc1-2,20.1
11,CO[C@H]1O[C@@H]2O[C@@]3(C)CC[C@H]4[C@H](C)CC[C@@H]([C@H]1C)[C@@]24OO3,18.5
12,CCOc1ccc(C2C3=C(CC(C)(C)CC3=O)N(CC(=O)O)C3=C2C(=O)CC(C)(C)C3)cc1OCC,5.47
13,CCN(Cc1ccccc1)S(=O)(=O)c1ccc(S(=O)(=O)N2CCN(C)CC2)cc1,14.4
14,COCCn1c(=NC(=O)CCS(=O)(=O)c2ccccc2)sc2ccccc21,-8.2
15,O=C(Nc1nccs1)c1ccc(Br)s1,1.2
16,Cc1ccc(Cn2nnnc2CN2CCC(O)(c3ccccc3F)CC2)cc1,-21.5
17,CC(C)CC1(C(=O)NCc2ccccn2)C=CCN1C(=O)c1ccccc1 (centres unmarked),10.6
18,Nc1nonc1NN=C1CCCCC1,18.6
19,CN(C)c1ccc(-c2nnn(CC(=O)Nc3ccc4c(c3)OCCO4)n2)cc1,53.4
20,Cc1nc2ccc(NS(=O)(=O)c3ccc(C)c(C)c3)cc2s1,8.06
